# Patent publication US7595313B2, “Nitric oxide donating diuretic compounds, compositions and methods of use” (NicOx, S.A., priority 2005, dated 2009)
# Test system: contractions elicited by 100 nM angiotensin II in isolated rat aorta
# Test: Angiotensin II-induced contractions in rat aorta
# Details: for inhibition of angiotensin-II-induced contractions (in words): 100 nM angiotensin II, isolated rat aorta; for inhibition at 1 µM / inhibition at 10 µM: Rattus norvegicus, read-out: % INHIBITION of angiotensin II-induced contraction
SMILES,inhibition of angiotensin-II-induced contractions (in words),inhibition at 1 µM [%],inhibition at 10 µM [%]
"NS(=O)(=O)c1cc2c(cc1Cl)NCN(CCO[N+](=O)[O-])S2(=O)=O [Example 51, 2H-1,2,4-Benzothiadiazine-7-sulfonamide, 6-chloro-3,4-dihydro-2-[2-(nitrooxy)ethyl]-, 1,1-dioxide]",significant inhibition,51,–
"NS(=O)(=O)c1cc2c(cc1Cl)NC(CCCCO)NS2(=O)=O (centres unmarked) [Example 26, 2H-1,2,4-Benzothiadiazine-7-sulfonamide, 6-chloro-3,4-dihydro-3-(4-hydroxybutyl)-, 1,1-dioxide]",–,8,–
"NS(=O)(=O)c1cc2c(cc1Cl)NC(CCCCO[N+](=O)[O-])NS2(=O)=O (centres unmarked) [Example 17b, 2H-1,2,4-Benzothiadiazine-7-sulfonamide, 6-chloro-3,4-dihydro-3-[4-(nitrooxy)butyl]-, 1,1-dioxide]",significant inhibition,36,58
"NS(=O)(=O)c1cc2c(cc1Cl)NCNS2(=O)=O [HCT, hydrochlorothiazide, reference compound]",–,0,12
